Screen size: about 360,000 compounds; about 520 (0.14%) were called active. The shares of active, inactive and inconclusive entries below differ from those in the screen. Calls come from the whole dose curve; as a rule, active = well fitted inhibition curve with a large enough effect; inconclusive = small, poorly fitted or top-dose-only effect; inactive = no such curve, though single readings can be large or run the other way. Potencies of inconclusive entries are left out as doubtful fits.
target: Rap guanine nucleotide exchange factor 3 (Homo sapiens) (UniProt O95398); experiment: qHTS for Antagonist of cAMP-regulated guanine nucleotide exchange factor 3 (EPAC1): primary screen; conditions: EPAC1 GEF assay, Rap1b-BODIPY-GDP exchange fluorescence; activity change, negative = inhibition: at 115 µM (top of the series); note: nearly all actives have a fitted effect of over 50% in size;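 for activity change, negative = inhibition: plate controls were vehicle for no effect and positive control for full effect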
Potency is the fitted concentration of half-maximal effect; tags give direction and shape of the fitted curve.

Chain of UniProt O95398 (O95398 whole entry, looked up): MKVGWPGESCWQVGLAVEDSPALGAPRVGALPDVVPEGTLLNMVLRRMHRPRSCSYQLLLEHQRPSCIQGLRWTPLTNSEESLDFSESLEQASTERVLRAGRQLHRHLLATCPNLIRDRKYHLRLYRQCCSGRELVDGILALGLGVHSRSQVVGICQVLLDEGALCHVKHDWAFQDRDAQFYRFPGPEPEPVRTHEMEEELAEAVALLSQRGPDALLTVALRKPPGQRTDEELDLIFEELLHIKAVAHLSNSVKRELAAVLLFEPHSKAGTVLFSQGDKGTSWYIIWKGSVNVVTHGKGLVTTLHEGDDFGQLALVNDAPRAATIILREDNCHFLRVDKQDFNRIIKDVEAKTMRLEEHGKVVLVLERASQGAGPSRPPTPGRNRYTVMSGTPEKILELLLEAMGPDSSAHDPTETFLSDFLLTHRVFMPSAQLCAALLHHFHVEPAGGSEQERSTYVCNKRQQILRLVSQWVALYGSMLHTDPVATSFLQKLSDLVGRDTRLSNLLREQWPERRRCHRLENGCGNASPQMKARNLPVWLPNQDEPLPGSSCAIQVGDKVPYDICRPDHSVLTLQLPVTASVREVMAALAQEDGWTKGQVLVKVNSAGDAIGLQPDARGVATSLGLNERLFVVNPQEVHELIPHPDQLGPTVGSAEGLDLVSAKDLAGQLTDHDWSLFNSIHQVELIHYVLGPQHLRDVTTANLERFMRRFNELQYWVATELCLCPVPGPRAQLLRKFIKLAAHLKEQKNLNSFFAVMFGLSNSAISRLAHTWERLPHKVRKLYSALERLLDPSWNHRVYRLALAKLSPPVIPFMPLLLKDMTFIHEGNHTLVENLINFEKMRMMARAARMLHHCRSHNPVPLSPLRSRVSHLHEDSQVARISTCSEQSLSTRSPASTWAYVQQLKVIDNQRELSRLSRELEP

Structure (SMILES) | activity change, negative = inhibition | Potency
O=C(Nc1nc2c(F)cccc2s1)c1ccco1 | inconclusive: -14.9% [inhibitor] | 
Cc1ccc(-n2ncc3c(SCc4ccccc4)ncnc32)cc1 | inactive: -4.7% | 
O=c1cc(CN2CCN(c3ccc(Cl)c(Cl)c3)CC2)c2ccccc2o1 | inactive: -1.19% | 
c1ccc(NC2=NCCN2CC2CCCCC2)cc1 |  | inconclusive [inhibitor, single point]
Nc1ccc(C=Cc2ccc(N)cc2)cc1 |  | inconclusive [inhibitor, single point]
CC(=O)c1c(C)[nH]c(C(=O)COC(=O)c2cc(C)oc2C)c1C | inconclusive: 7.93% [inhibitor] | 
Cn1c(-c2c(N)n(CCCc3ccccc3)c3nc4ccccc4nc23)nc2ccccc21 | inactive: -18.6% | 
CCOC(=O)Nc1sc(C)nc1-c1ccccc1 | inactive: -0.55% | 
COc1ccc(-c2ccc(N)cn2)cn1 | inactive: -0.324% | 
O=C1C(Cl)=C(N2CCC(C(=O)O)CC2)C(=O)c2ccccc21 |  | inconclusive [inhibitor, partial curve]
COc1cc(/C=N/N2C(=O)c3ccccc3NC2(C)c2cccc([N+](=O)[O-])c2)cc(Br)c1O (stereo unspecified) |  | inconclusive [inhibitor, single point]
COc1ccc(C(O)(CCC(C)C)C(CN2CCOCC2)c2ccccc2)cc1 (stereo unspecified) | inactive: -19.1% | 
COc1nccnc1NS(=O)(=O)c1ccc(NC(=S)NC(=O)/C=C/c2ccc(F)cc2)cc1 | inactive: -14.6% | 
COc1ccc(NC(=O)CN(C)CC(=O)Nc2cccc(S(=O)(=O)N(C)c3ccccc3)c2)cc1 |  | inconclusive [inhibitor, partial curve]
S=C(NCCN1CCOCC1)Nc1ccc(Nc2ccccc2)cc1 |  | inconclusive [inhibitor, partial curve]
COc1cccc2sc(N(CCCN(C)C)C(=O)c3ccc(S(=O)(=O)N4CCc5ccccc5C4)cc3)nc12 |  | inconclusive [inhibitor, single point]
Cc1ccc(NC(=O)c2c(NC(=O)CCC(=O)O)sc3c2CCCCC3)cc1 |  | inconclusive [inhibitor, full curve, poor fit]
O=C1C(Cc2ccccc2)Nc2ncnc(N3CCN(c4ccccc4)CC3)c2N1Cc1ccc(Br)cc1 (stereo unspecified) | inconclusive: -5.09% [inhibitor] | 
Cc1ccc(C(=O)Nc2ncccc2O)cc1S(=O)(=O)N1CCCCC1 |  | inconclusive [inhibitor, single point]
CN1/C(=C\C=O)C(C)(C)c2ccccc21 | inactive: 5.96% | 
CC(=O)C1=CCC(c2ccccc2Cl)N(S(=O)(=O)c2ccc(C)cc2)C1 (stereo unspecified) |  | inconclusive [inhibitor, single point]
Cn1c(-c2cccc(Br)c2)cnc1NCc1ccccc1O | inactive: -24.1% | 
Cc1cccc(OCCn2cc(/C=N/NC(=O)c3ccncc3)c3ccccc32)c1 |  | inconclusive [inhibitor, partial curve]

Structure (SMILES) | activity change, negative = inhibition | Potency
CC(=O)c1cc(C)ccc1OC(=O)c1cccnc1 |  | inconclusive [inhibitor, partial curve]
CC(Sc1nc2cc(Cl)ccc2s1)C(=O)Nc1cccc(S(=O)(=O)N2CCOCC2)c1 (stereo unspecified) |  | inconclusive [inhibitor, single point]
O=C(COC(=O)COc1cccc(F)c1)NCC1CCCCC1 |  | inconclusive [inhibitor, partial curve]
CCN(CC)c1ccc(C(=O)NN)cc1 |  | inconclusive [inhibitor, partial curve]
COc1cccc(CN2C(=O)c3cccc(N)c3C2=O)c1 |  | inconclusive [inhibitor, single point]
NS(=O)(=O)c1ccc(CNC(=O)Cc2ccccc2F)cc1 |  | inconclusive [inhibitor, single point]
CCCc1c(Cc2cccc(F)c2)ncn1Cc1cccc(-c2ccccc2)c1 | inactive: -17.8% | 
CC(C)N=c1scc(-c2cccs2)n1/N=C/c1ccc(O)c(O)c1O |  | inconclusive [inhibitor, single point]
c1ccc(C(c2ccccc2)N2CCN(c3nc4ccccc4n4cnnc34)CC2)cc1 |  | inconclusive [inhibitor, full curve, poor fit]
COc1cccc(-c2cc3nc(-c4ccccc4)cc(N4CCN(C(=O)c5ccoc5)CC4)n3n2)c1 |  | inconclusive [inhibitor, partial curve]
O=C1C2C3C=CC(c4ccccc4)(C2C(=O)N1c1cccc(Cl)c1)C1C(=O)N(c2cccc(Cl)c2)C(=O)C31 (stereo unspecified) |  | inconclusive [inhibitor, partial curve]
Nc1cccn2c(-c3ccc(Cl)c(Cl)c3)cnc12 |  | inconclusive [inhibitor, partial curve, poor fit]
COC(=O)c1ccc(/C=N/Nc2nc3ccccc3[nH]2)cc1 | inactive: 4.97% | 
O=C(O)C1Nc2ccc(Br)cc2C2C=CCC12 (stereo unspecified) |  | inconclusive [inhibitor, partial curve]
NC(c1csc(Nc2cc(Oc3ccccc3)ncn2)n1)C1CCCCC1 (stereo unspecified) | inactive: -6.26% | 
O=C(C#Cc1ccccc1)c1ccc([N+](=O)[O-])cc1 |  | inconclusive [inhibitor, single point]
C/C(CC(=O)C(F)(F)F)=N\NC(=O)/C(C#N)=C/N(C)C |  | inconclusive [inhibitor, single point]
CC(=O)c1sc2nc(CSc3nnnn3-c3ccccc3)[nH]c(=O)c2c1C |  | inconclusive [inhibitor, partial curve]
Cc1nn(CC(=O)NCc2ccccc2)c(C)c1[N+](=O)[O-] | inactive: 11.9% | 
COc1ccc(/C=C2\Oc3cc(OC(=O)N4CCOCC4)ccc3C2=O)cc1 | inactive: 1.98% | 
CCC[C@H](CN[C@@H](CNC)[C@H](C)O)NCCc1ccc(OC)cc1 | inactive: 0.663% | 
CCCCC(=O)N(C)c1c(CC)nc2c(OCC3CCCCC3)cccn12 |  | inconclusive [inhibitor, single point]
CCN(CC)S(=O)(=O)c1ccc2c(c1)nc(SCC(=O)N(C)C1CCS(=O)(=O)C1)n2CC (stereo unspecified) |  | inconclusive [inhibitor, partial curve]
